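Results reflect a 48-hour exposure of cells in 96-well plates to compound at five concentrations. The concentration for 50% growth inhibition is given as GI50.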 Activity calls are given as the source filed them. Rule as the data show it: active = GI50 up to about 1.1 µM and inactive = higher.
Tested on: NCI-H322M
Test: growth of human tumour cells (NCI), 48 h

Question: Which GI50 does the source give for O=C(NNCC(O)COc1ccccc1)c1ccccc1 (stereo unspecified) here?
Answer: inactive: > 100 µM

Question: Which GI50 does the source give for CC(NC(=O)c1ccc(Cl)c(Cl)c1)c1ccc(-c2ccccc2)cc1 (stereo unspecified) here?
Answer: inactive: 48 µM

Question: For OCCSCC(O)Cn1cnc2c(O)nc(Nc3ccccc3)nc21 (stereo unspecified), which GI50 is on record?
Answer: inactive: > 100 µM

Question: How did the GI50 turn out when CCOC(=O)c1cc2c(=Cc3ccc(N(C)C)cc3)c3ccccc3n2[n+]1C was run?
Answer: inactive: 1.41 µM

Question: With CN(C)c1cccc(F)c1C(=O)NC(=O)Nc1ccc(Cl)cc1 as the compound, how does the GI50 read?
Answer: inactive: 8.69 µM

Question: For Cc1cc(NC(=O)NC(=O)c2ccccc2NC(=O)CN)ccc1Oc1ncc(Br)cn1, which GI50 is on record?
Answer: inactive: 1.33 µM

Question: For COCCOc1nc(-c2ccccc2)nc2ccccc12, which GI50 is on record?
Answer: inactive: > 100 µM

Question: With O=C(/C=C/c1ccccc1O)c1cccnc1 as the compound, how does the GI50 read?
Answer: inactive: > 100 µM

Question: Which GI50 does the source give for Cc1ccc(C2=NOC(=O)[C@@H]3CCCC[C@@H]23)cc1 here?
Answer: inactive: > 100 µM

Question: With c1cnc2c(c1)-n1cccc1C1(CCCCC1)NN2 as the compound, how does the GI50 read?
Answer: inactive: 90.2 µM

Question: CC(C)(CN1CCCCC1)C(=O)/C=C/c1ccc(Cl)c(Cl)c1 was tested. Which GI50 did it give?
Answer: inactive: > 100 µM

Question: Which GI50 does the source give for O=C(/C=C/c1ccc([N+](=O)[O-])o1)N1CCN(Cc2ccccc2)CC1 here?
Answer: inactive: 11 µM

Question: Which GI50 does the source give for Nc1cc2c(cc1[N+](=O)[O-])[nH]c1c(-c3ccccc3)nccc12 here?
Answer: inactive: 17.8 µM

Question: Which GI50 does the source give for N=C/N=C/C(=S)O[C@@H]1C(=O)N2CCC[C@@]23CCCC[C@@H]13 here?
Answer: inactive: > 12.5 µM

Question: For CC(C(=O)O)C(C)(O)C(=O)O (stereo unspecified), which GI50 is on record?
Answer: inactive: > 100 µM

Question: How did the GI50 turn out when N#CC(C#N)=C1c2ccccc2C(=NN)c2ccccc21 was run?
Answer: inactive: > 100 µM

Question: With C=C=C(CC1CCCCC1=O)S(=O)(=O)c1ccccc1 (stereo unspecified) as the compound, how does the GI50 read?
Answer: inactive: > 5.46 µM

Question: Which GI50 does the source give for Cc1ccc(C)n1-n1c(Cc2ccc(Cl)cc2)n[nH]c1=O here?
Answer: inactive: > 100 µM

Question: With O=C1Cc2cc3ccccc3nc2-c2ccccc2N1 as the compound, how does the GI50 read?
Answer: inactive: 22.4 µM

Question: With CC(C)=CCc1cc(C2COc3cc4c(c(O)c3C2=O)C=CC(C)(C)O4)c(O)cc1O (stereo unspecified) as the compound, how does the GI50 read?
Answer: inactive: 16.5 µM

Question: With O=C(O)CC(NC(=O)/C(=C/c1ccccc1O)NC(=O)c1ccccc1)C(=O)O (stereo unspecified) as the compound, how does the GI50 read?
Answer: inactive: > 100 µM

Question: With OCCOc1ccccc2cccc1-2 as the compound, how does the GI50 read?
Answer: inactive: > 100 µM

Question: Which GI50 does the source give for CN1CCC(O)(C(C)(C)C)CC1 here?
Answer: inactive: > 100 µM

Question: Which GI50 does the source give for CCCCNC(=O)C1C2CCC(O2)C1C(=O)O (stereo unspecified) here?
Answer: inactive: 86.7 µM

Question: How did the GI50 turn out when O=C1C(Cl)C(c2cc(Br)ccc2O)N1n1cnc2ccccc2c1=O (stereo unspecified) was run?
Answer: inactive: 12.2 µM

Question: CC(=O)NC(CCCNC(=O)NCCCl)C(=O)NCc1ccccc1 (stereo unspecified) was tested. Which GI50 did it give?
Answer: inactive: > 100 µM

Question: For COc1ccc(CC(COS(=O)(=O)c2ccc(C)cc2)NS(=O)(=O)c2ccc(C)cc2)cc1 (stereo unspecified), which GI50 is on record?
Answer: inactive: 16.1 µM

Question: With Cc1nc2ccccc2c(=O)n1NC(=O)Cc1ccccc1 as the compound, how does the GI50 read?
Answer: inactive: > 100 µM

Question: With O=C1CSC(c2cccs2)N1c1nc2cc3sc(N4C(=O)CSC4c4cccs4)nc3cc2s1 (stereo unspecified) as the compound, how does the GI50 read?
Answer: inactive: 49.1 µM

Question: With CCNC(=O)OCC1C2=C(C(=O)C(C)=C(N)C2=O)N2CC3C(N3C)C12OC (stereo unspecified) as the compound, how does the GI50 read?
Answer: inactive: 25.8 µM

Question: How did the GI50 turn out when OC1OC(c2ccco2)C(F)(F)C(F)(F)C1(F)F (stereo unspecified) was run?
Answer: inactive: > 100 µM

Question: How did the GI50 turn out when CCCCCCCCCc1c(Cl)nc(Cl)nc1Cl was run?
Answer: inactive: 17.7 µM

Question: How did the GI50 turn out when COc1ccc(CSc2ccccc2Cn2cccc2)cc1OC was run?
Answer: inactive: > 100 µM

Question: How did the GI50 turn out when COC(=O)C1C=NNC1C(=O)OC (stereo unspecified) was run?
Answer: inactive: > 100 µM

Question: Which GI50 does the source give for c1cncc(C2c3[nH]c4ccccc4c3CCN2CCN2CCCCC2)c1 (stereo unspecified) here?
Answer: inactive: > 100 µM

Question: For CC(=O)OCC(C)C1=C(OC(C)=O)C(=O)C2(C)C/C=C(/C)CC/C=C(\C)CCC(OC(C)=O)C(C)CCC12 (stereo unspecified), which GI50 is on record?
Answer: inactive: 17.3 µM

Question: With Cc1ccc(S(=O)(=O)N2c3ccccc3[C@H]3CCC=C[C@H]32)cc1 as the compound, how does the GI50 read?
Answer: inactive: 21.6 µM

Question: For CCOC(=O)CNC(=O)C(CSCC1C(=O)Nc2ccccc21)NC(=O)CCC(N)C(=O)OCC (stereo unspecified), which GI50 is on record?
Answer: inactive: 4.83 µM

Question: How did the GI50 turn out when CCOC(=O)c1c2ccccc2n2c(=O)n(-c3ccc(OC)cc3)nnc12 was run?
Answer: inactive: 56.2 µM

Question: For CC(C)/C(Cl)=N\OC(=O)Nc1ccc(F)c([N+](=O)[O-])c1, which GI50 is on record?
Answer: inactive: 13.1 µM

Question: How did the GI50 turn out when COc1ccc2nc3ccc(OC)cc3c(SCCCl)c2c1 was run?
Answer: inactive: 38.7 µM

Question: Cc1cc2c(C)nn(Cc3ccc(Cl)cc3Cl)c2c(C#N)c1C was tested. Which GI50 did it give?
Answer: inactive: > 100 µM

Question: Which GI50 does the source give for O=C1c2ccccc2C(=O)N1C/C=C/CO here?
Answer: inactive: > 100 µM

Question: With COC(=O)C(Cc1ccccc1)/N=C/c1c(O)c(O)c(C(C)C)c2cc(C)c(-c3c(C)cc4c(C(C)C)c(O)c(O)c(/C=N/C(Cc5ccccc5)C(=O)OC)c4c3O)c(O)c12 (stereo unspecified) as the compound, how does the GI50 read?
Answer: inactive: 16.7 µM

Question: How did the GI50 turn out when CC(=O)NC1C(OCc2ccccc2)OC(CO)C(O)C1OCC(=O)N[C@@H](C)C(=O)N[C@H](CCC(=O)NCCCCNc1c2ccccc2nc2cccc([N+](=O)[O-])c12)C(N)=O (stereo partly specified) was run?
Answer: inactive: 3.96 µM

Question: For [C-]#[N+]C1(C(=O)OCC)CC1, which GI50 is on record?
Answer: inactive: > 100 µM

Question: With COc1ccc2c(c1)CN([C@@H](C)[C@H]1CC[C@H]3[C@@H]4CC[C@H]5C[C@@H](O)CC[C@]5(C)[C@H]4CC[C@]13C)CO2 as the compound, how does the GI50 read?
Answer: inactive: 3.05 µM

Question: How did the GI50 turn out when COc1ccc2c(c1)CCc1c-2[nH]c2ccc(OC)cc12 was run?
Answer: inactive: > 100 µM

Question: COC(=O)C(NC(=O)C12CCC(C)(C(=O)O1)C2(C)C)c1cc(C(C)(C)C)c(O)c(C(C)(C)C)c1 (stereo unspecified) was tested. Which GI50 did it give?
Answer: inactive: > 100 µM

Question: CCCCc1ccc(-n2sc3ncc([N+](=O)[O-])cc3c2=O)cc1 was tested. Which GI50 did it give?
Answer: inactive: 8.07 µM

Question: With CCc1cccc(C(C)(C)C)c1NC(=S)N/C=C(/C#N)C(N)=O as the compound, how does the GI50 read?
Answer: inactive: > 100 µM

Question: For CC(C)CC(CNC(Cc1ccc(Cl)cc1)C(N)=O)NC(=O)C(Cc1c[nH]cn1)NC(=O)CNC(=O)C(NC(=O)C(C)NC(=O)C(Cc1c[nH]c2ccccc12)NC(=O)C(CCC(=O)O)NC(=O)C(N)Cc1ccccc1)C(C)C (stereo unspecified), which GI50 is on record?
Answer: inactive: > 133 µM

Question: Which GI50 does the source give for OCC(O)C(OC1OC(CO)C(O)C(O)C1O)c1nn(-c2ccccc2)c2nc3cc(Cl)ccc3nc12 (stereo unspecified) here?
Answer: inactive: > 100 µM

Question: Which GI50 does the source give for O=C(O)CCCN/C(=C1\C(=O)C(=O)N(c2ccccc2)C1=O)c1ccccc1 here?
Answer: inactive: > 100 µM

Question: Which GI50 does the source give for Cc1ccc(C(O)c2cnc(C)n2Cc2ccccc2)cc1 (stereo unspecified) here?
Answer: inactive: > 100 µM

Question: How did the GI50 turn out when CC(=O)N/N=C1\CC(C)(C)C2CCC1C2 (stereo unspecified) was run?
Answer: inactive: > 100 µM

Question: How did the GI50 turn out when O=c1c2ccc(Cl)cc2oc2c(CNc3ccc(S(=O)(=O)Nc4ncccn4)cc3)cccc12 was run?
Answer: inactive: > 100 µM

Question: How did the GI50 turn out when O=C(N/N=C/c1ccccc1O)c1ccccc1Nc1ccccc1C(=O)N/N=C/c1ccccc1O was run?
Answer: active: 0.434 µM

Question: For COC(=O)c1cc2c(cc1Cl)Sc1nnc(Nc3ccc(C)cc3)n1S2(=O)=O, which GI50 is on record?
Answer: inactive: 10.2 µM

Question: For CC(=O)Nc1ccc(S(=O)(=O)c2nnc(NC(C)=O)s2)cc1, which GI50 is on record?
Answer: inactive: > 100 µM

Question: COc1ccc(C2=NN(C(=O)COc3ccc(Cl)cc3)C(O)(c3ccc(Cl)cc3)C2)cc1 (stereo unspecified) was tested. Which GI50 did it give?
Answer: inactive: > 100 µM

Question: How did the GI50 turn out when Cc1ccc2c(=O)c3cccc(CC(=O)O)c3[nH]c2c1C was run?
Answer: inactive: > 100 µM

Question: How did the GI50 turn out when C=C(C)C(=O)OC1C[C@H](COC(C)=O)C2CC=C(CO)C2C2OC(=O)C(=C)[C@H]12 (stereo partly specified) was run?
Answer: inactive: > 100 µM

Question: [BH3-][P+]1(CC[P@@+]([BH3-])(c2ccccc2)c2ccccc2OC)[C@@H](C)[C@@H](O)[C@H](O)[C@@H]1C (stereo partly specified) was tested. Which GI50 did it give?
Answer: inactive: 13 µM

Question: With CC(=O)OC1C/C(C)=C/[C@H](O)CC(C)/C=C/[C@@]2(C)CCC(C(C)(C)O)C12 (stereo partly specified) as the compound, how does the GI50 read?
Answer: inactive: > 100 µM

Question: With NCCCNCCCCN(CCCN)/[N+]([O-])=N\O as the compound, how does the GI50 read?
Answer: inactive: > 100 µM

From ChEMBL document CHEMBL1201862, “PubChem BioAssay data set” (2004)
